Results reported in the supplement of paper PMC8728848.
This is one part of the list.

Tests used:
Assay in all cases: glycan array binding signal (z-score within array); higher = stronger binding
Conditions in all cases: glycan notation: IUPAC condensed, linker removed
[1] = biological target: Fuc(a1-2)Gal
Outline: (§1)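 Glycan array binding is given as a within-array Z-score, which can be read as non-binding when negative. The arrays, 3228 of them, came from the Consortium for Functional Glycomics database and were retained only where the protein sequence was available. Z-scores were averaged across arrays of the same protein sequence at different concentrations or buffers and across linkers.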

[2] = biological target: Fuc(a1-2)Gal(b1-3)GalNAc
Outline: as §1

[3] = biological target: Fuc(a1-2)Gal(b1-3)GalNAc(a1-3)[Fuc(a1-2)]Gal(b1-4)Glc
Outline: as §1

[4] = biological target: Fuc(a1-2)Gal(b1-3)GalNAc(a1-3)[Fuc(a1-2)]Gal(b1-4)GlcNAc
Outline: as §1

[5] = biological target: Fuc(a1-2)Gal(b1-3)GalNAc(b1-3)Gal
Outline: as §1

[6] = biological target: Fuc(a1-2)Gal(b1-3)GalNAc(b1-3)Gal(a1-4)Gal(b1-4)Glc
Outline: as §1

[7] = biological target: Fuc(a1-2)Gal(b1-3)GalNAc(b1-4)[Neu5Ac(a2-3)]Gal(b1-4)Glc
Outline: as §1

[8] = biological target: Fuc(a1-2)Gal(b1-3)GlcNAc
Outline: as §1

[9] = biological target: Fuc(a1-2)Gal(b1-3)GlcNAc(b1-2)Man(a1-3)[Fuc(a1-2)Gal(b1-3)GlcNAc(b1-2)Man(a1-6)]Man(b1-4)GlcNAc(b1-4)GlcNAc
Outline: as §1

[10] = biological target: Fuc(a1-2)Gal(b1-3)GlcNAc(b1-2)Man(a1-3)[Fuc(a1-2)Gal(b1-3)GlcNAc(b1-2)Man(a1-6)]Man(b1-4)GlcNAc(b1-4)[Fuc(a1-6)]GlcNAc
Outline: as §1

[11] = biological target: Fuc(a1-2)Gal(b1-3)GlcNAc(b1-3)Gal(b1-4)Glc
Outline: as §1

[12] = biological target: Fuc(a1-2)Gal(b1-3)GlcNAc(b1-3)GalNAc
Outline: as §1

[13] = biological target: Fuc(a1-2)Gal(b1-3)GlcNAc(b1-3)[Fuc(a1-3)[Gal(b1-4)]GlcNAc(b1-6)]Gal(b1-4)Glc
Outline: as §1

[14] = biological target: Fuc(a1-2)Gal(b1-3)GlcNAc(b1-3)[Gal(b1-4)GlcNAc(b1-6)]Gal(b1-4)Glc
Outline: as §1

[15] = biological target: Fuc(a1-2)Gal(b1-3)[Fuc(a1-4)]GlcNAc
Outline: as §1

[16] = biological target: Fuc(a1-2)Gal(b1-3)[Fuc(a1-4)]GlcNAc(b1-2)Man(a1-3)[Fuc(a1-2)Gal(b1-3)[Fuc(a1-4)]GlcNAc(b1-2)Man(a1-6)]Man(b1-4)GlcNAc(b1-4)GlcNAc
Outline: as §1

[17] = biological target: Fuc(a1-2)Gal(b1-3)[Fuc(a1-4)]GlcNAc(b1-3)[Fuc(a1-3)[Gal(b1-4)]GlcNAc(b1-6)]Gal(b1-4)Glc
Outline: as §1

[18] = biological target: Fuc(a1-2)Gal(b1-3)[Fuc(a1-4)]GlcNAc(b1-3)[Gal(b1-4)GlcNAc(b1-6)]Gal(b1-4)Glc
Outline: as §1

[19] = biological target: Fuc(a1-2)Gal(b1-4)Glc
Outline: as §1

[20] = biological target: Fuc(a1-2)Gal(b1-4)Glc6S
Outline: as §1

[21] = biological target: Fuc(a1-2)Gal(b1-4)GlcNAc
Outline: as §1

[22] = biological target: Fuc(a1-2)Gal(b1-4)GlcNAc(b1-2)Man(a1-3)[Fuc(a1-2)Gal(b1-4)GlcNAc(b1-2)Man(a1-6)]Man(b1-4)GlcNAc(b1-4)GlcNAc
Outline: as §1

[23] = biological target: Fuc(a1-2)Gal(b1-4)GlcNAc(b1-2)Man(a1-3)[Fuc(a1-2)Gal(b1-4)GlcNAc(b1-2)Man(a1-6)]Man(b1-4)GlcNAc(b1-4)[Fuc(a1-6)]GlcNAc
Outline: as §1

[24] = biological target: Fuc(a1-2)Gal(b1-4)GlcNAc(b1-2)[Fuc(a1-2)Gal(b1-4)GlcNAc(b1-4)]Man(a1-3)[Fuc(a1-2)Gal(b1-4)GlcNAc(b1-2)Man(a1-6)]Man(b1-4)GlcNAc(b1-4)GlcNAc
Outline: as §1

[25] = biological target: Fuc(a1-2)Gal(b1-4)GlcNAc(b1-3)Gal(b1-4)GlcNAc
Outline: as §1

[26] = biological target: Fuc(a1-2)Gal(b1-4)GlcNAc(b1-3)Gal(b1-4)GlcNAc(b1-3)Gal(b1-4)GlcNAc
Outline: as §1

[27] = biological target: Fuc(a1-2)Gal(b1-4)GlcNAc(b1-3)GalNAc
Outline: as §1

[28] = biological target: Fuc(a1-2)Gal(b1-4)GlcNAc6S
Outline: as §1

[29] = biological target: Fuc(a1-2)Gal(b1-4)[Fuc(a1-3)]GlcNAc
Outline: as §1

[30] = biological target: Fuc(a1-2)Gal(b1-4)[Fuc(a1-3)]GlcNAc(b1-2)Man(a1-3)[Fuc(a1-2)Gal(b1-4)[Fuc(a1-3)]GlcNAc(b1-2)Man(a1-6)]Man(b1-4)GlcNAc(b1-4)GlcNAc
Outline: as §1

B1: Tectonin 2 (Laccaria bicolor) (protein)
chain: MPWKGISGSLSRISAGSVTNVWGVNAANNIYRYTGDDAKPWVQIPGALTDIGAAADGTVWGVNAAGNIYRYVWDSNHWTQIKGALKRISAGSRTNVWGVNAGGAIYRYTGDDANPWVQIPGVLSDIGAGADGTVWGVNAAGEIYRYTGDQGDPNHWVKIPGALSAISAGIKTNVWGVNSANNIYTSTGDDKNPWLGIGGSLVDIGAGTDGVVWGVNAGGGIYRWIRD
- glycan array binding signal (z-score) [1]: -0.247
- glycan array binding signal (z-score) [2]: -0.064
- glycan array binding signal (z-score) [3]: -0.319
- glycan array binding signal (z-score) [4]: -0.382
- glycan array binding signal (z-score) [5]: -0.174
- glycan array binding signal (z-score) [6]: -0.416
- glycan array binding signal (z-score) [7]: -0.139
- glycan array binding signal (z-score) [8]: -0.235
- glycan array binding signal (z-score) [9]: -0.066
- glycan array binding signal (z-score) [10]: -0.069
- glycan array binding signal (z-score) [11]: -0.337
- glycan array binding signal (z-score) [12]: -0.105
- glycan array binding signal (z-score) [13]: -0.175
- glycan array binding signal (z-score) [14]: -0.495
- glycan array binding signal (z-score) [15]: -0.307
- glycan array binding signal (z-score) [16]: 0.389
- glycan array binding signal (z-score) [17]: -0.5
- glycan array binding signal (z-score) [18]: -0.176
- glycan array binding signal (z-score) [19]: -0.214
- glycan array binding signal (z-score) [20]: -0.349
- glycan array binding signal (z-score) [21]: 0.108
- glycan array binding signal (z-score) [22]: -0.029
- glycan array binding signal (z-score) [23]: -0.416
- glycan array binding signal (z-score) [24]: -0.021
- glycan array binding signal (z-score) [25]: -0.123
- glycan array binding signal (z-score) [26]: 0.032
- glycan array binding signal (z-score) [27]: -0.32
- glycan array binding signal (z-score) [28]: -0.326
- glycan array binding signal (z-score) [29]: -0.194
- glycan array binding signal (z-score) [30]: 0.23
